Measurements: article PMC2699145 (The Journal of Cell Biology, 2009)

Target: T1, MBP-tagged RIL (human, UniProt P50479 1-330)
T1 sequence (looked up): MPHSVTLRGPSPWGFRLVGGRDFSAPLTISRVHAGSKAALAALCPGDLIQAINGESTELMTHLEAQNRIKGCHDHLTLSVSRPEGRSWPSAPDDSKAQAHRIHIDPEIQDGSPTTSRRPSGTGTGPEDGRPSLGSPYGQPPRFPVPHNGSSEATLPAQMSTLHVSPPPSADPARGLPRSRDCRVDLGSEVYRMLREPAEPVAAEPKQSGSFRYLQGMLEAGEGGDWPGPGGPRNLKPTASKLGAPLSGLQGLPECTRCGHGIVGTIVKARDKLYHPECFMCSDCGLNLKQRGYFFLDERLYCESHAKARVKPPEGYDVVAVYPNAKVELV
Test: pull-down

binding result: binds
B1: GST fusion protein containing the SH2 domain of Src ([…]) (domain or fragment)
chain: not shown
